Patent US11618753B2 (priority 2018, dated 2023)

System: MLKL phosphorylation, HT29-L23 human colorectal adenocarcinoma cells
Test: cells
Conditions: read-out: pMLKL HCS Cell Assay (IC50, uM)

Row | SMILES | IC50
1 | Nc1ncnn2c(-c3ccc(Cl)c(C(=O)N[C@@H]4CN(C(=O)c5c(F)cccc5F)C[C@@H]4F)c3)cc(C(F)(F)F)c12 [Example 964, 5-[4-amino-5-(trifluoromethyl)pyrrolo[2,1-f][1,2,4]triazin-7-yl]-2-chloro-N-[(3R,4S)-1-(2,6-difluorobenzoyl)-4-fluoropyrrolidin-3-yl]benzamide] | 0.0082 µM
2 | Nc1ncnn2c(-c3ccc(Cl)c(C(=O)N[C@@H]4CN(C(=O)C5CCC(F)(F)C5)C[C@@H]4F)c3)cc(CN3CCC(F)(F)CC3)c12 (stereo partly drawn) [Example 1148, 5-{4-amino-5-[(4,4-difluoropiperidin-1-yl)methyl]pyrrolo[2,1-f][1,2,4]triazin-7-yl}-2-chloro-N-[(3R,4S)-1-(3,3-difluorocyclopentanecarbonyl)-4-fluoropyrrolidin-3-yl]benzamide] | 0.001 µM
3 | Cc1ccc(-c2cc(C(F)(F)F)c3c(N)ncnn23)cc1C(=O)N[C@@H]1CN(C(=O)c2ccc(F)cc2F)C[C@@H]1F [Example 1022, 5-[4-amino-5-(trifluoromethyl)pyrrolo[2,1-f][1,2,4]triazin-7-yl]-N-[(3R,4S)-1-(2,4-difluorobenzoyl)-4-fluoropyrrolidin-3-yl]-2-methylbenzamide] | 0.0046 µM
4 | COc1ncc(-c2ccc3c(N)ncnn23)cc1C(=O)N[C@@H]1CN(C(=O)C2CCC(F)(F)CC2)C[C@@H]1F [Example 158, 5-{4-aminopyrrolo[2,1-f][1,2,4]triazin-7-yl}-N-[(3R,4S)-1-(4,4-difluorocyclohexanecarbonyl)-4-fluoropyrrolidin-3-yl]-2-methoxypyridine-3-carboxamide] | 0.253 µM
5 | [2H]C([2H])([2H])Oc1ncc(-c2cc(C(F)(F)F)c3c(NC(C)=O)ncnn23)cc1C(=O)N[C@@H]1CN(C(=O)[C@@H]2CCC(F)(F)C2)C[C@@H]1F [Example 1342, N-[(3R,4S)-1-[(1R)-3,3-difluorocyclopentanecarbonyl]-4-fluoropyrrolidin-3-yl]-5-[4-acetamido-5-(trifluoromethyl)pyrrolo[2,1-f][1,2,4]triazin-7-yl]-2-methoxypyridine-3-carboxamide] | 0.03 µM
6 | Nc1ncnn2c(-c3ccc(Cl)c(C(=O)N[C@@H]4CN(C(=O)c5ccc(F)c(F)c5)C[C@@H]4F)c3)cc(C(F)(F)F)c12 [Example 948, 5-[4-amino-5-(trifluoromethyl)pyrrolo[2,1-f][1,2,4]triazin-7-yl]-2-chloro-N-[(3R,4S)-1-(3,4-difluorobenzoyl)-4-fluoropyrrolidin-3-yl]benzamide] | 0.022 µM
7 | [2H]C([2H])([2H])Oc1ncc(-c2cc(C(F)(F)F)c3c(N)ncnn23)cc1C(=O)NC1CN(C(=O)C2CCC(F)(F)C2)C[C@@H]1F (single isomer, unassigned) [Example 45-1] | 0.011 µM
8 | COc1ncc(-c2cc(C(F)(F)F)c3c(N)ncnn23)cc1C(=O)N[C@@H]1CN(C(=O)C2CC23CC3)C[C@@H]1F (stereo partly drawn) [Example 1223, 5-[4-amino-5-(trifluoromethyl)pyrrolo[2,1-f][1,2,4]triazin-7-yl]-N-[(3R,4S)-4-fluoro-1-{spiro[2.2]pentane-1-carbonyl}pyrrolidin-3-yl]-2-methoxypyridine-3-carboxamide] | 0.041 µM
9 | Nc1ncnn2c(-c3cc(F)c(Cl)c(C(=O)N[C@@H]4CN(C(=O)C5(F)CC5)C[C@@H]4F)c3)cc(C(F)(F)F)c12 [Example 636, 5-[4-amino-5-(trifluoromethyl)pyrrolo[2,1-f][1,2,4]triazin-7-yl]-2-chloro-3-fluoro-N-[(3R,4S)-4-fluoro-1-(1-fluorocyclopropanecarbonyl)pyrrolidin-3-yl]benzamide] | 0.013 µM
10 | Cc1nc(C)c(-c2cc(C(F)(F)F)c3c(N)ncnn23)cc1C(=O)N1CCC[C@@H](Cc2ccc(F)cc2)C1 [Example 529, 7-{5-[(3S)-3-[(4-fluorophenyl)methyl]piperidine-1-carbonyl]-2,6-dimethylpyridin-3-yl}-5-(trifluoromethyl)pyrrolo[2,1-f][1,2,4]triazin-4-amine] | 0.047 µM
11 | C[C@@](O)(C(=O)N1C[C@H](F)[C@H](NC(=O)c2c(F)ccc(-c3cc(C(F)(F)F)c4c(N)ncnn34)c2F)C1)C(F)(F)F [Example 722, 3-[4-amino-5-(trifluoromethyl)pyrrolo[2,1-f][1,2,4]triazin-7-yl]-2,6-difluoro-N-[(3R,4S)-4-fluoro-1-[(2R)-3,3,3-trifluoro-2-hydroxy-2-methylpropanoyl]pyrrolidin-3-yl]benzamide] | 0.009 µM
12 | Nc1ncnn2c(-c3ccc(OC(F)F)c(C(=O)N[C@@H]4CN(C(=O)CC(O)(C(F)(F)F)C(F)(F)F)C[C@@H]4F)c3)cc(C(F)(F)F)c12 [Example 1088, 5-[4-amino-5-(trifluoromethyl)pyrrolo[2,1-f][1,2,4]triazin-7-yl]-2-(difluoromethoxy)-N-[(3R,4S)-4-fluoro-1-[4,4,4-trifluoro-3-hydroxy-3-(trifluoromethyl)butanoyl]pyrrolidin-3-yl]benzamide] | 0.0098 µM
13 | Cc1ccc(-c2cc(C(F)(F)F)c3c(N)ncnn23)cc1C(=O)N[C@@H]1CN(C(=O)c2cnccc2Cl)C[C@@H]1F [Example 1013, 5-[4-amino-5-(trifluoromethyl)pyrrolo[2,1-f][1,2,4]triazin-7-yl]-N-[(3R,4S)-1-(4-chloropyridine-3-carbonyl)-4-fluoropyrrolidin-3-yl]-2-methylbenzamide] | 0.0099 µM
14 | CC(O)(CC(=O)N1C[C@H](F)[C@H](NC(=O)c2cc(-c3cc(C(F)(F)F)c4c(N)ncnn34)ccc2CF)C1)C(F)(F)F (stereo partly drawn) [Example 919, 5-[4-amino-5-(trifluoromethyl)pyrrolo[2,1-f][1,2,4]triazin-7-yl]-N-[(3R,4S)-4-fluoro-1-(4,4,4-trifluoro-3-hydroxy-3-methylbutanoyl)pyrrolidin-3-yl]-2-(fluoromethyl)benzamide] | 0.0032 µM
15 | Nc1ncnn2c(-c3cc(C(=O)N[C@@H]4CN(C(=O)C5CCC(F)(F)C5)C[C@@H]4F)c(F)cc3Cl)cc(C(F)(F)F)c12 (stereo partly drawn) [Example 523, 5-[4-amino-5-(trifluoromethyl)pyrrolo[2,1-f][1,2,4]triazin-7-yl]-4-chloro-N-[(3R,4S)-1-(3,3-difluorocyclopentanecarbonyl)-4-fluoropyrrolidin-3-yl]-2-fluorobenzamide] | 0.02 µM
16 | COc1ncc(-c2cc(C(F)(F)F)c3c(N)ncnn23)cc1C(=O)N[C@@H]1CN(C(C)c2ccc(F)cc2F)C[C@@H]1F (stereo partly drawn) [Example 436, 5-[4-amino-5-(trifluoromethyl)pyrrolo[2,1-f][1,2,4]triazin-7-yl]-N-[(3R,4S)-1-[1-(2,4-difluorophenyl)ethyl]-4-fluoropyrrolidin-3-yl]-2-methoxypyridine-3-carboxamide] | 0.0085 µM
17 | Nc1ncnn2c(-c3cc(C(=O)N[C@@H]4CN(C(=O)C5CC(F)C5)C[C@@H]4F)c(F)cc3F)cc(C(F)(F)F)c12 (stereo partly drawn) [Example 778, 5-[4-amino-5-(trifluoromethyl)pyrrolo[2,1-f][1,2,4]triazin-7-yl]-2,4-difluoro-N-[(3R,4S)-4-fluoro-1-(3-fluorocyclobutanecarbonyl)pyrrolidin-3-yl]benzamide] | 0.026 µM
18 | [2H]C([2H])([2H])Oc1ncc(-c2ccc3c(N)ncnn23)cc1C(=O)N[C@@H]1CN(C(=O)[C@@](C)(O)C(F)(F)F)C[C@@H]1F [Example 1836, 5-(4-aminopyrrolo[2,1-f][1,2,4]triazin-7-yl)-N-((3R,4S)-4-fluoro-1-((R)-3,3,3-trifluoro-2-hydroxy-2-methylpropanoyl)pyrrolidin-3-yl)-2-(methoxy-d3)nicotinamide] | 0.0091 µM
19 | CCC(O)(C(=O)N1C[C@H](F)[C@H](NC(=O)c2cc(-c3cc(CN4CCC(F)(F)CC4)c4c(N)ncnn34)c(F)cc2OC)C1)C(F)(F)F (stereo partly drawn) [Example 1637, 5-{4-amino-5-[(4,4-difluoropiperidin-1-yl)methyl]pyrrolo[2,1-f][1,2,4]triazin-7-yl}-4-fluoro-N-[(3R,4S)-4-fluoro-1-[2-hydroxy-2-(trifluoromethyl)butanoyl]pyrrolidin-3-yl]-2-methoxybenzamide] | 0.0012 µM
20 | Nc1ncnn2c(-c3cc(C(=O)N[C@@H]4CN(C(=O)C5CC(F)C5)C[C@@H]4F)c(Cl)cc3F)cc(C(F)(F)F)c12 (stereo partly drawn) [Example 888, 5-[4-amino-5-(trifluoromethyl)pyrrolo[2,1-f][1,2,4]triazin-7-yl]-2-chloro-4-fluoro-N-[(3R,4S)-4-fluoro-1-(3-fluorocyclobutanecarbonyl)pyrrolidin-3-yl]benzamide] | 0.0022 µM
21 | COc1ncc(-c2cc(C(=O)N(C)C)c3c(N)ncnn23)cc1C(=O)NCC[C@H](O)c1ccc(Cl)cc1 [Example 476, 5-[4-amino-5-(dimethylcarbamoyl)pyrrolo[2,1-f][1,2,4]triazin-7-yl]-N-[(3S)-3-(4-chlorophenyl)-3-hydroxypropyl]-2-methoxypyridine-3-carboxamide] | 0.072 µM
22 | Cc1c(F)cc(-c2cc(CN3CC(F)(F)C3)c3c(N)ncnn23)cc1C(=O)N[C@@H]1CN(C(=O)C2CC(F)(F)C2)C[C@@H]1F [Example 1562, 5-{4-amino-5-[(3,3-difluoroazetidin-1-yl)methyl]pyrrolo[2,1-f][1,2,4]triazin-7-yl}-N-[(3R,4S)-1-(3,3-difluorocyclobutanecarbonyl)-4-fluoropyrrolidin-3-yl]-3-fluoro-2-methylbenzamide] | 0.00055 µM
23 | CC(C)(F)C(=O)N1C[C@H](F)[C@H](NC(=O)c2cccc(-c3cc(C(F)(F)F)c4c(N)ncnn34)c2)C1 [Example 96, 3-[4-amino-5-(trifluoromethyl)pyrrolo[2,1-f][1,2,4]triazin-7-yl]-N-[(3R,4S)-4-fluoro-1-(2-fluoro-2-methylpropanoyl)pyrrolidin-3-yl]benzamide] | 0.082 µM
24 | Cc1ccc(-c2cc(C(F)(F)F)c3c(N)ncnn23)cc1C(=O)Nc1cn(Cc2ccc(C(F)(F)F)cc2)cn1 [Example 1806, 5-(4-amino-5-(trifluoromethyl)pyrrolo[2,1-f][1,2,4]triazin-7-yl)-2-methyl-N-(1-(4-(trifluoromethyl)benzyl)-1H-imidazol-4-yl)benzamide] | 0.0022 µM
25 | COc1ncc(-c2cc(C(F)(F)F)c3c(N)ncnn23)cc1C(=O)N[C@@H]1CN(S(=O)(=O)C2CCCCC2O)C[C@@H]1F (stereo partly drawn) [Example 1483, 5-[4-amino-5-(trifluoromethyl)pyrrolo[2,1-f][1,2,4]triazin-7-yl]-N-[(3R,4S)-4-fluoro-1-[(2-hydroxycyclohexyl)sulfonyl]pyrrolidin-3-yl]-2-methoxypyridine-3-carboxamide] | 0.0052 µM
